The source of these data is the supplement of paper PMC4967469.

pIC50: −log10 of the molar value. The IC50 comes from the fitted curve, where viability falls to half of the control; a fit beyond the top or the lowest dose is shown as a bound at that dose. AUC is the area under the same curve over the 256-fold range up to the top dose, as a fraction: 1 means no effect, lower means more sensitive. Bounds are passed on as bounds.

Compound in the assay: Cn1c(=O)n(-c2ccc(C(C)(C)C#N)cc2)c2c3cc(-c4cnc5ccccc5c4)ccc3ncc21 [NVP-BEZ235]
Description: Viability of human cancer cell lines after 72 h of drug (GDSC screen). How it is done: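 Human cancer cell lines in 384-well plates, medium with 10% serum, drug for 72 h over a 256-fold dose range (nine 2-fold or five 4-fold steps up to the top dose). Adherent lines were fixed and stained with the nucleic acid dye Syto60, suspension lines read with resazurin; signal relative to control wells, capped at 0 and 100%. One two-parameter sigmoid per drug and line, fitted in a mixed model over all curves with the slope shared within a line.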

Broadly, the pIC50 is the negative decadic logarithm of the IC50, by convention in mol/L. Regarding “8-MG-BA (glioma, adherent, top dose 0.25 µM)”, the AUC came to 0.656 and the pIC50 was 7.39.

Consider “22RV1 (prostate, adherent, top dose 0.25 µM)”, for which the AUC came to 0.665 and the negative logarithm of the IC50 (pIC50) was 7.30.

Take “42-MG-BA (glioma, adherent, top dose 0.25 µM)”: the AUC was 0.539 and the negative-log IC50 (pIC50) was 7.70.

Turning to “201T (lung adenocarcinoma, adherent, top dose 0.25 µM)”, the AUC turned out to be 0.73 and the pIC50 is 7.07.

With “451Lu (melanoma, adherent, top dose 0.25 µM)”, the AUC was determined as 0.694 and the negative-log IC50 (pIC50) is 7.27.

With “639-V (bladder, adherent, top dose 0.25 µM)”, the AUC was determined as 0.683 and the pIC50 was 7.33.

Consider “647-V (bladder, adherent, top dose 0.25 µM)”, for which the AUC was found to be 0.762 and the pIC50 is 7.05.

As for “697 (lymphoblastic leukaemia, suspension, top dose 0.25 µM)”, the AUC was 0.552 and the pIC50 was 7.68.

Turning to “786-0 (kidney, adherent, top dose 0.25 µM)”, the AUC was 0.611 and the pIC50 is 7.51.

For the cell line “5637 (bladder, adherent, top dose 0.25 µM)”, the AUC turned out to be 0.755 and the pIC50 is 7.11.

As for “8305C (thyroid, adherent, top dose 0.25 µM)”, the AUC amounted to 0.643 and the pIC50 is 7.36.

As for “8505C (thyroid, adherent, top dose 0.25 µM)”, the AUC was found to be 0.658 and the pIC50 was 7.36.

In the case of “23132-87 (stomach, adherent, top dose 0.25 µM)”, the AUC is 0.818 and the pIC50 was 6.83.

Take “A3-KAW (B-cell lymphoma, suspension, top dose 0.25 µM)”: the AUC is 0.817 and the pIC50 is 6.98.

For the cell line “A4-Fuk (B-cell lymphoma, suspension, top dose 0.25 µM)”, the AUC was determined as 0.56 and the pIC50 is 7.64.

“A101D (melanoma, adherent, top dose 0.25 µM)”: the AUC is 0.545 and the negative logarithm of the IC50 (pIC50) was 7.67.

Take “A253 (head and neck, adherent, top dose 0.25 µM)”: the AUC came to 0.851 and the pIC50 is 6.74.

Consider “A375 (melanoma, adherent, top dose 0.25 µM)”, for which the AUC was determined as 0.531 and the pIC50 is 7.73.

On to A388 (skin, adherent, top dose 0.25 µM), for which the AUC was determined as 0.759 and the negative logarithm of the IC50 (pIC50) is 7.00.

Turning to “A427 (non-small cell lung carcinoma, adherent, top dose 0.25 µM)”, the AUC was 0.838 and the negative-log IC50 (pIC50) was 6.77.

As to A431 (skin, adherent, top dose 0.25 µM), the AUC turned out to be 0.759 and the pIC50 is 7.08.

For the cell line “A498 (kidney, adherent, top dose 0.25 µM)”, the AUC amounted to 0.709 and the negative-log IC50 (pIC50) was 7.08.

With “A549 (lung adenocarcinoma, adherent, top dose 0.25 µM)”, the AUC was 0.464 and the negative-log IC50 (pIC50) is 7.91.

For the cell line “A673 (rhabdomyosarcoma, adherent, top dose 0.25 µM)”, the AUC worked out at 0.989 and the pIC50 is less than 6.60.

Take “A704 (kidney, adherent, top dose 0.25 µM)”: the AUC came to 0.698 and the negative logarithm of the IC50 (pIC50) was 7.26.

Take “A2780 (ovary, semi-adherent, top dose 0.25 µM)”: the AUC was determined as 0.783 and the negative-log IC50 (pIC50) is 6.96.

For the cell line “AGS (stomach, adherent, top dose 0.25 µM)”, the AUC was 0.548 and the negative logarithm of the IC50 (pIC50) was 7.68.

For the cell line “ALL-PO (lymphoblastic leukaemia, suspension, top dose 0.25 µM)”, the AUC was determined as 0.742 and the pIC50 is 7.09.
